# Reference: the RNAGym collection of RNA variant scans (doi:10.7554/elife.90254)
# Read counts are not given, so values of variants with three or more changes are uncertain.
# B1: OR4K15 (parent)
# chain: GUUAACGGUCAUAGGCCAUGGAAACUAGGAGCACCAUUUCGCUGCCAGUGAAGAAAUGAACAAAGAAAAUCUGGGCCAGGCAGGCAUCAAAAGAAAUAGUCUUGCGCUCAACCAGAAAGUCUGUAAUCAUUUUAAGGGUA
# Variants of: B1
# Experiment: self-cleavage, relative activity (ratio to wild type); higher = more cleavage; in vitro, sequencing; the parent is a self-cleaving ribozyme
row,Variant,self-cleavage
1,U37C A55G A118G,1.33
2,U38A G44A A114G,0.69
3,U38C A47U G50A U72C,0.2
4,A36C A59G A95C U131C,0.62
5,A36G U70C U132C,0.54
6,U38A A60C A82G A118G U131C,0.27
7,C34U A54U A95G A126G,1.22
8,U37C A59G A67G U120C,0.84
9,A36U A64G A94G,0.84
10,A36G A91G U102C A110G,0.18
11,U37C C45A A55G,1.45
12,A36U A64G U87A,1.79
13,U37C C46U U87C,1.48
14,U37A A60G A91G U124G U131C,0.41
15,U37C U87C A135G,1.33
16,C34U U122A U127C,1.11
17,A36U A62G A116G A118G U124C A135G,0.3
18,A36G A90G A117G,2.44
19,U38A A56G U132G,2.31
20,U37C A67U U87C,1.75
21,A36U A56G A68G U97C U120A,0.15
22,U37C C40U A60G U70A,0.57
23,C34U A64G U131A,1.39
24,A36G A89G A126G A129G,0.41

row,Variant,self-cleavage
1,U37C A47U A95G,1.42
2,U38A U87A U103C,1.05
3,U38C A54G A117U,1.25
4,C34A U122C U139C,0
5,U37C A66G U130C,2.16
6,A36G A91G A95G U120A,2.91
7,A36U U57C A89G A96G,0.36
8,U38A A60G U70C C112U,0.01
9,A36G A118G U139G,1.14
10,U38A C40G A63G G75A A90C,0.1
11,U38A U100C A114G,1.93
12,A36G A62G A64G U132C,1.96
13,A36U A95G U127C,1.89
14,U37C U72C A91G U130C,0.06
15,U38C A54G A89G A114G,1.31
16,A36G A63G U132C,1.95
17,U37C A116G U120C,0.36
18,U37C U132C A140U,2.27
19,U37C A96G U100C A140G,2.6
20,U37C A82U A135G,0.51
21,U37C A52C A94G G136A,1.81
22,U37C A54G U120A,1.14
23,U38C A47G A91G A96G,0.84
24,A36U A52G A111U,0.05

row,Variant,self-cleavage
1,U38A A67G U100G G106A A125G,0
2,C34U A68G A117U U131C U132C,1.39
3,U38A A54G G79A U100A C105U U131C,0.01
4,C35A U38C A63G,1.87
5,A36U A56G A68G A126U U130C,0.94
6,A36G A47G A60G A67G A89C,0.57
7,A36G A89G U122A,1.64
8,A36G A59G G79A A89G,0.15
9,A36U G74U U108A,0.02
10,A36G U38A A63U A66G,1.53
11,A36U A52G A78G U122C,0.11
12,U38C A51G U122C,1.51
13,U38A U72C A118G,0.21
14,A36G A63U A94U,2.35
15,C35U A52G A117G A129G,0.56
16,A36U A82G A111G A140G,0
17,U37G U87C A98C A129G,1.14
18,A36U A54U A86U C128U,1.86
19,U38C A55G A63G U124C,1.04
20,U37C A54G A60G A62U A68G U122C U132A,0.29
21,C35U U38C U57A A60G A92G U102C,1
22,U37A U38A U72A,0.17
23,A36G A129G U139C,1.46
24,U37C U49C U70C A78U,0.23

row,Variant,self-cleavage
1,A36G A63U U131C,1.12
2,A36U A78G G115A,0.12
3,U38C A47U A55G U120C,0.44
4,A36C U38C A94G U103C,0.38
5,A36U A47G A91G A117G A129U,0.15
6,U38C A47G A54G A66G U70C U87A A96G,0.83
7,U37C U38C A68G A86U A117G,2.21
8,A36U A95G G123A,1.65
9,A36G A91U A110G U124C G138U,0.06
10,A36C A68G A125G,0.58
11,A36G U70C A89G,1.21
12,U37C A69G A82G U108C A116U,0.04
13,A36C C40A A51G A89G A94G A96G,1.47
14,U38A U43A A69G U70C,0.14
15,U37C U57A A60U,0.57
16,U37C U43C A47G,1.68
17,A36G A47U A59U U102C A116G,0.75
18,A36U A59U U108C,0.01
19,U37C U87G A98U,0.92
20,A36G A91G U108A,0.03
21,C35U A54U A91G A94G U131C U139C,0.88
22,A36U G44A A51G A111G,0.03
23,A36G A114G A116G A118G,0.12
24,U38A G74C U131C,0.14

row,Variant,self-cleavage
1,A36U A56G A62G A78C,0.47
2,C35U U57A G58U,0.46
3,U37C A54G C113A A129G U131C,0
4,U37C A60G U100C,1.8
5,A36G U102C U124C,1.17
6,A36C A63U U124C,2.22
7,A36C U37C A89C,0.92
8,U37C U39C U72A A111G,0.02
9,U37C G53U A117G,1.86
10,A36G A62G A66G A91G,0.91
11,U37C A86G A114U,0.02
12,U37C A114G A118G,0.05
13,A36U A52U A116U U122C,0.18
14,U37C A56G A94G,1.05
15,U37C A54G A67U A125G,0.79
16,A36G A91G A114U,0.05
17,C35U A59G A94G A110G,0.04
18,U37C A60G G104A U130C,0.02
19,U37C U49C A54G A82G U97C,0.47
20,C35A A51G A68G A94G A117G,1.7
21,A36G A56G U72C A78G A125U,0.23
22,C34U A52G A91G U100C,2.64
23,U37A U39C G41A A51G U57C A66G U102C,1.92
24,A36G A60G U103C,0.09

row,Variant,self-cleavage
1,A36U A98G G137C,1.15
2,A36C U103C U120C U133C,0.62
3,U37C U57C A59G A92U U132C,1
4,U38A A59C A62G A118G U132C,1.08
5,A36G C46A A94G,1.51
6,U37C A51G A86U,1.43
7,U37C U43C A63G U122C A129G G136A,0.85
8,U37C C109A U133C,0.17
9,A36G A52U C88U A98U A126G,1.09
10,A36U U37C G50A,1.79
11,U37C U38C A82U U103C U122A,0.04
12,C35U A90G A116G,0.1
13,C35A A89G A92G U108C A117G,0
14,A36G G50U A68G U87C,1.84
15,U37C U72A A134G,0.26
16,A36G A52G A56G A95G A135U,0.73
17,A36U A90G U102C A135G,2.19
18,U37C U38G G74A G83A,0.22
19,U37C A64G U87C U122C,1.8
20,U38C A47G A95G U127C,0.94
21,A36G A59G A82G A90G U122G,0.2
22,U37C A92C U108C,0.01
23,U38C A55G A56G A66G U87A A95G U120C,1.16
24,U37C C61A A63G A96G U122A U124A,0.46

row,Variant,self-cleavage
1,A36G A63G A96G,1.84
2,U37C A54C A60G,1.82
3,U37C A51G A96G A117U,1.5
4,A36U A55U A64G,1.26
5,U37C G75A U130C,0.12
6,U37C A54G G58A,1.71
7,U37C A111U A117U,0.03
8,U37C A47G U100C,2.13
9,U38C A54G A82G U102C A126G,0.22
10,U37C A111G A118G,0.01
11,U37C A47U A62G A95U U124A,0.28
12,C35U A51C A82U G83A A95U,0.04
13,A36G U127A U130C U131C,2.67
14,A36U U43A A59G A60G,1.37
15,U37C A82G U127C A135G,0.1
16,U37C A51G A59G A118G,0.21
17,C34G U72A A90G A96G,0.13
18,U38A C42U U87C A114G A117G,0.35
19,U37C U120C U122A U127C,0.33
20,U38A A64G A66G,1.09
21,U37C A68G U102C C107U A118U,0
22,A36C U38C A94G A135G,2.4
23,A36C A67G A86G,1.68
